Out of some 110,000 compounds screened, about 230 (0.21%) showed an effect of 50% or more. This is one part of the list.
Each compound was assayed against DPAP1 (Plasmodium falciparum, UniProt Q8IIJ9) (assay: primary screen, percent inhibition; read by cleavage of a fluorogenic dipeptide substrate; higher = more effect of the substance).
Set-up: species or system P. falciparum D10 trophozoite lysates; single well
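Note: 30 min substrate incubation versus DMSO and 10 µM JCP410 controls.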

DPAP1, sequence (Q8IIJ9 whole entry, looked up): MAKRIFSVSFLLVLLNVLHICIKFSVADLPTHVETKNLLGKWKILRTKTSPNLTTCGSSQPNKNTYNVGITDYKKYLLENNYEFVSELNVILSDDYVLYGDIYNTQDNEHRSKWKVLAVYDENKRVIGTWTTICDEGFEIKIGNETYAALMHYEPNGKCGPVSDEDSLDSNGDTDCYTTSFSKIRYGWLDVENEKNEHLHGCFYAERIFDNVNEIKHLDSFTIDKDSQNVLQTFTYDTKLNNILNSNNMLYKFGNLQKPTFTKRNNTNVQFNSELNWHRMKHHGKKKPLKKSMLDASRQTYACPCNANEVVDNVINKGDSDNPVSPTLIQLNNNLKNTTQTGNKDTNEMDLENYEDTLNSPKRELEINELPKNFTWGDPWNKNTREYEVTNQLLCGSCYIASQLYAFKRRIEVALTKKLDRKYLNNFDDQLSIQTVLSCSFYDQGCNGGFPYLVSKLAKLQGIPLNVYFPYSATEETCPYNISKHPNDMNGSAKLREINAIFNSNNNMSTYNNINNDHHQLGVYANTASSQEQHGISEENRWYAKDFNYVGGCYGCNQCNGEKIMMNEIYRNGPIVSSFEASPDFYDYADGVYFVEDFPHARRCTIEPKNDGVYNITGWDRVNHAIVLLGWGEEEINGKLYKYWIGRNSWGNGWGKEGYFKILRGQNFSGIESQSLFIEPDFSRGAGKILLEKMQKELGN

| Compound | % Inhibition @ 10 uM |
| --- | --- |
| Cc1ccc(-c2nc(N)n(S(=O)(=O)c3ccc(C)cc3)n2)cc1 | -1.11% |
| CC(C)CN(CC(C)C)C(=O)c1cc(S(=O)(=O)N2CCCCC2)c[nH]1 | 2.27% |
| COc1ccc(Cn2c(C(=O)O)c(CNCCc3cccs3)c3ccccc32)cc1 | 5.94% |
| N#CC1=C(N)Oc2nc(SCc3ccccc3)nc(O)c2C1c1ccccc1 (stereo not drawn) | -2.54% |
| CC(NC(=O)C1CCN(c2ncnc3c2sc2cccc(F)c23)CC1)c1ccccc1 (stereo not drawn) | 5.73% |
| O=C(Nc1ccc(Cl)c(C(F)(F)F)c1)c1ccc([N+](=O)[O-])cc1Cl | 7.2% |
| c1ccc(NC2=Nc3ccccc3CCC2)cc1 | 2.86% |
| CCN(CC)CCN(C)C1CCN(CCc2ccccc2)CC1 | -5.11% |
| COc1cccc(OC)c1C(=O)N1CCNCC1 | -2.97% |
| CC(=O)Nc1ccc(NC(=O)CN2CCN(CC(=O)Nc3ccc(NC(C)=O)cc3)CC2)cc1 | -3.04% |
| Brc1ccc(-c2csc3ncnc(N4CCOCC4)c23)cc1 | -5.31% |
| Cc1nn(CC(=O)NC(C)c2ccccc2)c(=O)c2cccn12 (stereo not drawn) | 1.76% |
| Nc1ccc(C(=O)Nc2cccc(-c3nc4ccccc4o3)c2)cc1 | -16.1% |
| CC(C)CC(C(=O)NCC#N)c1cncc(-c2ccc(N3CCN(C=O)CC3)cc2)c1 (stereo not drawn) | -6.46% |
| COc1cc(/C=N/n2cnnc2)cc(OC)c1OC | 1.39% |
| CC1CCCCN1c1ncnc2c1oc1ccccc12 (stereo not drawn) | 3.32% |
| Cc1cc(C)n(-c2ccc3nn(-c4ccccc4)nc3c2)n1 | 4.65% |
| Oc1ccc(CN2CCC(O)CC2)cc1 | 2.23% |
| CN(Cc1ccccc1)S(=O)(=O)c1ccc([N+](=O)[O-])cc1 | 5.69% |
| Cc1occc1C(=O)Nc1nc2ccc(Cl)cc2s1 | 5.42% |
| CC1(C)CC(OC(=O)c2ccccc2)CC(C)(C)N1OC(=O)c1ccco1 | -3.04% |
| CCN(CC)S(=O)(=O)c1ccc(NC(=O)C2CCCO2)cc1 (stereo not drawn) | -4.15% |
| COc1cc(C)c(CNCc2ccc(OC)c(OC)c2)cc1C | -5.4% |
| Cc1cc(OCC(=O)N2CCCCCC2)cc(C)c1Cl | -2.18% |
| Cc1ccc(C)c(S(=O)(=O)NCc2ccc(C(=O)O)cc2)c1 | 0.214% |

| Compound | % Inhibition @ 10 uM |
| --- | --- |
| Cc1cccc(-c2nc(SCC(C)C)n[nH]2)c1 | -0.99% |
| CCOc1ccc(C2C3C(=NN2C(C)=O)C2CCN3CC2)cc1 (stereo not drawn) | 3.24% |
| Cc1ccc(N(C)C(=O)c2cnn(-c3ccccc3)c2C)c(C)c1 | -3.43% |
| Fc1ccc(NCc2[nH]nnc2-c2ccccc2)cc1 | -3.85% |
| COc1ccccc1CNC(=O)c1ccc(Br)cc1 | -0.636% |
| O=C(COc1ccccc1)N1CCN(C(=O)COc2ccc(Cl)cc2)CC1 | 1.26% |
| Cc1ccc(C(=O)NCC(C)NC(=O)c2ccc(C)c(C)c2)cc1C (stereo not drawn) | 1.08% |
| CCN(CC)C(=O)C1C=C(c2ccccc2)C=CN=C1N(CC)CC (stereo not drawn) | 0.605% |
| O=C(O)/C=C\C(=O)Nc1ccccc1C#Cc1ccccc1 | -2.28% |
| Cc1c(C(=O)NC2CCS(=O)(=O)C2)oc2ccccc12 (stereo not drawn) | -5.54% |
| Cc1ccccc1S(=O)(=O)Cc1ccc(C(=O)N2CCN(Cc3ccc4c(c3)OCO4)CC2)o1 | -8.42% |
| Cc1c(CNCc2ccc(OC(C)C)cc2)c(C(=O)O)c(C)n1Cc1ccccc1 | -7.28% |
| CC(=O)Nc1cc(C)nn1C(C)(C)C | -6.62% |
| CCOc1ccccc1C(=O)NC(C)c1ccc2c(c1)OCO2 (stereo not drawn) | -1.04% |
| CC[C@@H](C)[C@H](NC(=O)OCc1ccccc1)C(=O)N[C@@H](CCc1ccccc1)C(=O)c1nc2ccccc2o1 | 6.4% |
| Cc1ccc(S(=O)(=O)N(CC(=O)Nc2ccc3c(c2)OCO3)c2ccc(C)c(C)c2)cc1 | 3.17% |
| CCO/C(O)=C1/C(C)=Nc2ncnn2C1c1ccc(OC(F)F)c(OCC)c1 (stereo not drawn) | 7.63% |
| CCN(CCN(C)C)Cc1ccc(Cl)cc1 | 3.24% |
| CCN1CCN(CC(C)c2ccccc2)CC1 (stereo not drawn) | 1.88% |
| COc1ccc(C2C(C(=O)c3ccccc3)=C(O)C(=O)N2CCN2CCOCC2)c(OC)c1 (stereo not drawn) | 2.17% |
| Cc1ccc(C(c2c(O)nc(S)nc2O)N2CCCC(C)C2)cc1 (stereo not drawn) | 3.51% |
| Cc1nn(C)c2c1c(C(F)(F)F)cc(=O)n2CC(=O)NCc1ccccc1 | -1.74% |
| Cc1c(Cl)cccc1NC(=O)CSc1nc2ccccc2[nH]1 | 6.86% |
| Cc1ccc(NC(=O)CCc2nnc3ccc(N4CCN(C)CC4)nn23)nc1 | -5.85% |
| COc1ccc(C(=O)/C=C/c2oc3cc(C)ccc3c2C)c(O)c1 | -0.0267% |

| Compound | % Inhibition @ 10 uM |
| --- | --- |
| CCn1c(C(=O)O)c(CNCCC2=CCCCC2)c2ccccc21 | 3.54% |
| CCC(C)c1c(O)nc(SCC(=O)N(CC)CC)nc1O (stereo not drawn) | -6.44% |
| CSc1nc(Oc2cccc3ccccc23)cc(-n2nc(C)c(C#N)c2N)n1 | 2.44% |
| Cc1c(C)c2ccc(OC3CCCCC3=O)cc2oc1=O (stereo not drawn) | -3.64% |
| CC1=C(C(=O)N2CCN(C(=O)c3ccco3)CC2)C2(CCC(C)CC2)OC1=O (stereo not drawn) | -0.354% |
| CN(CC/C=C1/c2ccccc2CSc2ccccc21)CCCO | -16% |
| COc1cccc(S(=O)(=O)NCc2ccc(C(=O)N3CCN(c4ccccc4)CC3)cc2)c1 | 0.161% |
| Cc1cc(C(=O)N2CC(C)CC(C)C2)c2c(C)nn(-c3ccccc3)c2n1 (stereo not drawn) | -4.97% |
| COc1cccc(C2C(C#N)=C(N)Oc3cc(N)ccc32)c1OC (stereo not drawn) | 3.54% |
| CCC(Sc1nc(-c2ccc(OC)cc2)nc2c1c(=O)n(C)c(=O)n2C)C(=O)O (stereo not drawn) | 2.34% |
| N#CC1=C(N)N(c2c(F)cccc2F)C2=C(C(=O)CCC2)C1c1cccnc1 (stereo not drawn) | -4.76% |
| Cc1nnc(N2C(=O)c3oc4ccccc4c(=O)c3C2c2ccc(O)cc2)s1 (stereo not drawn) | -6.23% |
| CC1CCCC(Nc2ncnc3onc(-c4ccc(F)cc4)c23)C1C (stereo not drawn) | 0.882% |
| O=C(OC1c2ccccc2C(=O)N1Cc1ccccc1)c1cccc(Cl)c1 (stereo not drawn) | 0.446% |
| Cc1cc(C)c(Cn2cnc3ccccc32)c(C)c1 | -0.0235% |
| COc1ccc(N2CCN(Cc3cccc(OC)c3)CC2)cc1 | 4.57% |
| CCCCN(CCCC)S(=O)(=O)c1ccc2oc(C(=O)NCc3ccco3)c(C)c2c1 | -4.06% |
| CCn1c(=O)c(C(=O)Nc2nccs2)c(O)c2ccccc21 | 2.45% |
| CCO/C(O)=C1/C(C)=Nc2nc3ccccc3n2C1c1sccc1C (stereo not drawn) | 0.221% |
| CCCc1[nH]nc2c1C(c1ccc(OCC)c(OCC)c1)C(C#N)=C(N)O2 (stereo not drawn) | 1.03% |
| CN(C)c1nc(NC(C)(C)C)nc(SCC(=O)Nc2ccccc2)n1 | -2.58% |
| CC(CCc1ccccc1)NC(=O)Cn1ccc2cc(S(=O)(=O)N3CCCCC3)ccc21 (stereo not drawn) | 0.181% |
| CCN(CC)c1ccc(NC(=O)CN2C(=O)c3ccccc3C2=O)cc1 | -0.425% |
| CSc1ncc(C(=O)NCc2ccc(OC(C)C)cc2)c(-c2ccccc2)n1 | -4.45% |
| Cc1cnn(-c2cc(C(F)(F)F)nc(-c3ccccc3)n2)c1 | -0.636% |

| Compound | % Inhibition @ 10 uM |
| --- | --- |
| CCOc1ccc(/C=C2\SC(Nc3ccccc3)=NC2=O)cc1OC | 1.34% |
| CC1(C(=O)O)CCC(C(=O)Nc2ccc3ccccc3c2)C1(C)C (stereo not drawn) | 5% |
| CCOC(=O)c1c(C)c(C(=O)NC(C)CC)c(C)n1C (stereo not drawn) | 0.0579% |
| COc1cccc2c1cc1c(=O)n(CC(=O)NCc3ccccn3)nc(C)n12 | 3.29% |
| N#C/C(=C\c1c(Oc2ccccc2Cl)nc2ccccn2c1=O)C(=O)N1CCCCC1 | -4% |
| O=C(CSCc1ccc(Cl)cc1Cl)Nc1cnc(O)nc1O | 12.2% |
| COc1ccccc1OCc1ccc(C(=O)N2N=C(C(F)F)CC2(O)C(F)F)o1 (stereo not drawn) | -2.54% |
| O=C1c2ccccc2C(=O)N1CCN1CCc2ccccc21 | -2.07% |
| O=C(NCCN1CCC(Cc2ccccc2)CC1)c1cc(-c2cccnc2)nc2ccccc12 | 3.24% |
| CN(Cc1ccco1)S(=O)(=O)c1nnc(NC(=O)c2ccc(C(C)(C)C)cc2)s1 | 4.19% |
| CCC(C)NC(=O)CN(C1CCCCC1)S(C)(=O)=O (stereo not drawn) | -2.32% |
| CC1CCN(c2nc3c(c(=O)n(C)c(=O)n3C)n2Cc2cccc(C(F)(F)F)c2)CC1 | 3.35% |
| CCOC(=O)c1c(N)n(-c2cccc(O)c2)c2nc3ccccc3nc12 | -2.7% |
| COc1ccccc1-c1nnc2sc(CCc3ccccc3)nn12 | 4.47% |
| CCOC(=O)C1=CN(C(C)C)C=C(C(=O)OCC)C1c1cc(OC)c(OC)cc1OC | 0.219% |
| Nc1nc2ccccc2n1C(=O)CCc1ccccc1 | 5.65% |
| NS(=O)(=O)c1ccc(CCNC(=O)CN2C(=O)C3C4C=CC(CC4)C3C2=O)cc1 (stereo not drawn) | 2.8% |
| COc1ccc(-c2cc3c(=O)n(CC(=O)NCc4cc(Br)ccc4OC)ncn3n2)cc1 | 0.623% |
| Cc1cc(Cl)ccc1OCC(=O)Nc1ccc(N(C)C)cc1 | -3.37% |
| Cc1ccc(-c2nc(CS(=O)(=O)CC(=O)NCC(C)c3ccccc3)c(C)o2)cc1 (stereo not drawn) | -1.89% |
| CC(C)=CCCC(C)CN1CCN(c2ccc(F)cc2)CC1 (stereo not drawn) | 1.7% |
| O=C(CN(CCc1ccccc1)S(=O)(=O)c1ccc(Cl)cc1)Nc1ccc2c(c1)OCO2 | -5.9% |
| COc1ccc(OC)c(C2C(C#N)=C(N)Oc3cc(N)ccc32)c1 (stereo not drawn) | 3.01% |
| COc1ccc(-c2onc(C)c2C)cc1S(=O)(=O)N(Cc1cccs1)C1CCCC1 | 2.58% |
